SMILES strings stand for the structures. Structures can show the parent of a compound that is named as a salt. Some of the results follow. Many values rest on one well or one pass, so single values are uncertain.

The assay concerns OVCAR4. In words: log2 surviving fraction (library drug vs vehicle, or drug + carboplatin vs carboplatin alone; relative to plate median); ovarian cancer lines: OVCAR4 is platinum-sensitive and Ov4Carbo platinum-resistant; higher = more cell survival. Particulars: library drug concentration 10 µM; 7 days; carboplatin co-treatment 5 µM.
For `N=C(N)N` [Guanidine HCl], the log2 surviving fraction was 0.104. As to `C[C@@H]1O[C@@H]1P(=O)(O)O` [Fosfomycin Tromethamine], the log2 surviving fraction is -0.241. As to `CC[C@H]1OC(=O)[C@H](C)[C@@H](O[C@H]2C[C@@](C)(OC)[C@@H](O)[C@H](C)O2)[C@H](C)[C@@H](O[C@@H]2O[C@H](C)C[C@H](N(C)C)[C@H]2O)[C@](C)(O)C[C@@H](C)[C@@H]2N[C@@H](COCCOC)O[C@H]([C@H]2C)[C@]1(C)O` [Dirithromycin], the log2 surviving fraction was 0.216. The figure for `OC[C@@H](O)[C@@H](O)[C@H](O)[C@H](O)CO` [D-Mannitol (Osmitrol)] is 0.609. Regarding `CCCCNC(=O)NS(=O)(=O)c1ccc(C)cc1` [Tolbutamide], the log2 surviving fraction worked out at 1.25. The result for `CC(C)[N+]1(C)[C@@H]2CC[C@H]1C[C@@H](OC(=O)C(CO)c1ccccc1)C2` (stereo not given in full) [Ipratropium bromide] reads -1.73; that for `CN1C2CCC1CC(OC(=O)C(O)c1ccccc1)C2` (stereo not given) [Homatropine Bromide], 0.922.

With `Cc1cc(C(C#N)c2ccc(Cl)cc2)c(Cl)cc1NC(=O)c1cc(I)cc(I)c1O` (stereo not given) [Closantel Sodium], the log2 surviving fraction is -0.51. The figure for `C=C[C@]1(C)C[C@@H](OC(=O)CS[C@@H]2C[C@H]3CC[C@@H](C2)N3C)[C@]2(C)[C@H](C)CC[C@]3(CCC(=O)[C@H]32)[C@@H](C)[C@@H]1O` [Retapamulin] is -1.22; for `CC(=O)O[C@@]12CO[C@@H]1C[C@@H](O)[C@@]1(C)C(=O)[C@H](O)C3=C(C)[C@@H](O)C[C@@](O)([C@@H](OC(=O)c4ccccc4)[C@H]21)C3(C)C` [10-DAB (10-Deacetylbaccatin)] it is -4.3; for `CN(C)CCN(Cc1ccccc1)c1ccccn1` [Tripelennamine HCl] it is 0.255. The result for `COC1=C(OC)C(=O)C(CCCCCCCCCCO)=C(C)C1=O` [Idebenone] reads -0.447; that for `CC(=O)[C@H]1CC[C@H]2[C@@H]3CC=C4C[C@@H](O)CC[C@]4(C)[C@H]3CC[C@]12C` [Pregnenolone], 1.02. The result for `O=C1[C@H](CC[C@H](O)c2ccc(F)cc2)[C@@H](c2ccc(O)cc2)N1c1ccc(F)cc1` [Ezetimibe (Zetia)] reads -0.521; that for `C[C@@H]1CC(=O)NN=C1c1ccc(NN=C(C#N)C#N)cc1` [Levosimendan], -0.838. Consider `CN1CCN(c2c(F)cc3c(=O)c(C(=O)O)cn4c3c2OCN4C)CC1` [Marbofloxacin], for which the log2 surviving fraction stood at 0.704. In the case of `CN1CCN(CCCN2c3ccccc3Sc3ccc(Cl)cc32)CC1` [Prochlorperazine Dimaleate], the log2 surviving fraction is -0.776. Turning to `Cc1cc2c(s1)Nc1ccccc1N=C2N1CCN(C)CC1` [Olanzapine (Zyprexa)], the log2 surviving fraction was -0.339. The result for `O=c1[nH]c2ccccc2n1CCCN1CCC(n2c(=O)[nH]c3cc(Cl)ccc32)CC1` [Domperidone (Motilium)] reads 0.437. Take `Cc1c(Cl)cccc1Nc1ccccc1C(=O)O` [Tolfenamic acid]: the log2 surviving fraction was -0.578. The result for `[I-].[K+]` [Potassium iodide] reads 1.17; that for `C[C@H](N)[C@H](O)c1cccc(O)c1` [Metaraminol Bitartrate], 0.344; that for `CCC[C@H](NC(=O)[C@@H]1[C@H]2CCC[C@H]2CN1C(=O)[C@@H](NC(=O)[C@@H](NC(=O)c1cnccn1)C1CCCCC1)C(C)(C)C)C(=O)C(=O)NC1CC1` [Telaprevir (VX-950)], -0.893. `Nc1nc2c(ncn2COCCO)c(=O)[nH]1` [Acyclovir (Aciclovir)]: the log2 surviving fraction came to 0.641. The result for `COc1ccccc1OCCNCC(O)COc1cccc2[nH]c3ccccc3c12` (stereo not given) [Carvedilol] reads -0.974; that for `CCCCC(=O)O[C@]1(C(=O)CO)[C@@H](C)C[C@H]2[C@@H]3CCC4=CC(=O)C=C[C@]4(C)[C@@]3(F)[C@@H](O)C[C@@]21C` [Betamethasone valerate (Betnovate)], 0.511; that for `NC(=O)c1cnccn1` [Pyrazinamide (Pyrazinoic acid amide)], 0.939.

Take `C[N+]1(C)CCC(=C(c2ccccc2)c2ccccc2)CC1` [Diphemanil methylsulfate]: the log2 surviving fraction is -0.189. The figure for `CNC(=O)Oc1ccc2c(c1)[C@]1(C)CCN(C)[C@@H]1N2C` [Physostigmine Hemisulfate Salt] is 0.68. Consider `COc1ccc2c(c1)c(CC(=O)O)c(C)n2C(=O)c1ccc(Cl)cc1` [Indomethacin (Indocid, Indocin)], for which the log2 surviving fraction came out at 0.571. Consider `Cc1c(C(=O)NN2CCCCC2)nn(-c2ccc(Cl)cc2Cl)c1-c1ccc(Cl)cc1`, for which the log2 surviving fraction is -2.12. The figure for `CN(C)CCCN1c2ccccc2CCc2ccccc21` [Imipramine HCl] is -1.49; for `NC[C@H]1CC[C@H](C(=O)O)CC1` [Tranexamic acid (Transamin)] it is 0.618; for `CN1CC(=O)NC1=N` [Creatinine] it is 0.769. For `Nc1[nH]cnc2ncnc1-2` [Adenine], the log2 surviving fraction worked out at 0.547. `CC(=O)CCCCn1c(=O)c2c(ncn2C)n(C)c1=O` [Pentoxifylline]: the log2 surviving fraction is -0.484. In the case of `CCN1CCN(c2cc3c(cc2F)c(=O)c(C(=O)O)cn3C2CC2)CC1` [Enrofloxacin], the log2 surviving fraction came to 0.589. The result for `CN1CCc2cc3c(cc2C1O)OCO3` (stereo not given) [Hydrastinine HCl] reads 2.17; that for `Cc1cn([C@@H]2C[C@@H](O)[C@H](CO)O2)c(=O)[nH]c1=O` [Telbivudine (Sebivo, Tyzeka)], -0.364. `O=C1Cc2cc(CCN3CCN(c4nsc5ccccc45)CC3)c(Cl)cc2N1` [Ziprasidone hydrochloride]: the log2 surviving fraction was -0.215.
